These results are taken from the supplement of paper PMC6609913.

Molecules are shown by their SMILES. Counter-ions that a name gives are not always drawn. ± gives the standard deviation of the averaged measurements. In all, about 1,300 compounds were measured (“normalised cell viability”: median about 1, lowest 2% from about 0.14 on). Some of the results follow.

The test system of this assay is V-C8 (BRCA2-deficient hamster cells). Put plainly: normalised cell viability (fraction of plate median); higher = more viable cells (less toxic). The settings on record: 5 µM. An outline of the steps:
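Hamster V-C8 cells lacking BRCA2 and V-C8 cells with BRCA2 restored were seeded in 96-well plates. Library drugs (10 mM DMSO stocks) were added 24 h later at 5 μM in 100 μl medium, next to DMSO control wells, for 3 days (screen 1) or 6 days (screen 2). Cell viability was read by resazurin assay, median-plate normalised (modified robust per cent of sample), and triplicate wells were averaged.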

`CNCC(O)c1ccc(OC(=O)C(C)(C)C)c(OC(=O)C(C)(C)C)c1` (stereo not drawn) [Dipivefrin hydrochloride]: the normalised cell viability came to 0.831 ± 0.066 (treatment time: 3 days) and 0.954 ± 0.069 (treatment time: 6 days).

With `CC(C)NCC(O)c1ccc(O)c(O)c1` (single isomer, unassigned; (+)) [(+)-Isoproterenol (+)-bitartrate salt], the normalised cell viability worked out at 1.028 ± 0.0063 (treatment time: 3 days) and 0.926 ± 0.063 (treatment time: 6 days).

The compound `CC(NCCC(c1ccccc1)c1ccccc1)c1ccccc1` (stereo not drawn) [Fendiline hydrochloride] gave a normalised cell viability (treatment time: 3 days) of 0.197 ± 0.018 and a normalised cell viability (treatment time: 6 days) of 0.496 ± 0.16.

`O=c1[nH]c(=O)n(C2CCCO2)cc1F` (stereo not drawn) [Tegafur]: the normalised cell viability by setting is: (treatment time: 3 days) 1.04 ± 0.044; (treatment time: 6 days) 1.15 ± 0.13.

Compound `Cc1c(N(C)CS(=O)(=O)O)c(=O)n(-c2ccccc2)n1C` [Dipyrone] had a normalised cell viability (treatment time: 3 days) of 0.914 ± 0.028 and a normalised cell viability (treatment time: 6 days) of 0.876 ± 0.052.

`CN(C)c1nc(N(C)C)nc(N(C)C)n1` [Altretamine] returned a normalised cell viability (treatment time: 3 days) of 1.05 ± 0.052 and a normalised cell viability (treatment time: 6 days) of 1.03 ± 0.057.

The compound `Nc1nc2n[nH]nc2c(=O)[nH]1` [Azaguanine-8] had a normalised cell viability (treatment time: 3 days) of 0.846 ± 0.048 and a normalised cell viability (treatment time: 6 days) of 0.857 ± 0.029.

On to `CC(C)NCC(O)c1ccc2ccccc2c1` (stereo not drawn) [Pronethalol hydrochloride], for which the normalised cell viability came out at 1.04 ± 0.3 (treatment time: 3 days) and 1.07 ± 0.042 (treatment time: 6 days).

Take `C[C@H]1C[C@@H]2[C@H]([C@@H](O)C[C@@]3(C)[C@H]2CC[C@]3(O)C(=O)CO)[C@@]2(C)C=CC(=O)C=C12` [Methylprednisolone, 6-alpha]: the normalised cell viability (treatment time: 3 days) was 1.02 ± 0.068 and the normalised cell viability (treatment time: 6 days) is 1.01 ± 0.061.

Take `COc1ccccc1OCC(O)CN1CCN(CC(=O)Nc2c(C)cccc2C)CC1` (stereo not drawn) [Ranolazine]: the normalised cell viability (treatment time: 3 days) was determined as 1.04 ± 0.054 and the normalised cell viability (treatment time: 6 days) was found to be 0.967 ± 0.086.

Turning to `COc1cc([C@@H]2c3cc4c(cc3[C@@H](O[C@@H]3O[C@@H]5CO[C@@H](C)O[C@H]5[C@H](O)[C@H]3O)[C@H]3COC(=O)[C@H]23)OCO4)cc(OC)c1O` [Etoposide], the normalised cell viability reads like this: (treatment time: 3 days) 0.155 ± 0.0057; (treatment time: 6 days) 0.133 ± 0.017.

Compound `CCCNCC(O)COc1ccccc1C(=O)CCc1ccccc1` (stereo not drawn) [Propafenone hydrochloride] came in with a normalised cell viability (treatment time: 3 days) of 0.29 ± 0.019 and a normalised cell viability (treatment time: 6 days) of 0.388 ± 0.014.

On to `COc1ccc(C2CNC(=O)C2)cc1OC1CCCC1` (stereo not drawn) [Rolipram], for which the normalised cell viability (treatment time: 3 days) worked out at 1.01 ± 0.044 and the normalised cell viability (treatment time: 6 days) amounted to 1.02 ± 0.026.

Regarding `c1ccc([C@H]2CN3CCSC3=N2)cc1` [Levamisole hydrochloride], the normalised cell viability worked out at 1.03 ± 0.02 (treatment time: 3 days) and 1.02 ± 0.032 (treatment time: 6 days).

On to `CCC(=O)O[C@]1(C(=O)CCl)[C@@H](C)C[C@H]2[C@@H]3CCC4=CC(=O)C=C[C@]4(C)[C@@]3(F)[C@@H](O)C[C@@]21C` [Clobetasol propionate], for which the normalised cell viability runs as follows: (treatment time: 3 days) 0.935 ± 0.066; (treatment time: 6 days) 0.987 ± 0.074.

With `O=S(=O)(O)c1cc(O)ccc1O` [Ethamsylate], the normalised cell viability is, setting by setting: (treatment time: 3 days) 1.03 ± 0.033; (treatment time: 6 days) 0.866 ± 0.07.

On to `O=C1OCCN1/N=C/c1ccc([N+](=O)[O-])o1` [Furazolidone], for which the normalised cell viability reads like this: (treatment time: 3 days) 0.599 ± 0.051; (treatment time: 6 days) 0.486 ± 0.018.

For `CCCCc1cc2ccccc2c(OCCN(C)C)n1` [Dimethisoquin hydrochloride], the normalised cell viability runs as follows: (treatment time: 3 days) 1.03 ± 0.087; (treatment time: 6 days) 1.04 ± 0.05.

On to `CC(C(=O)O)c1ccc2c(c1)[nH]c1ccc(Cl)cc12` (stereo not drawn) [Carprofen], for which the normalised cell viability is 1.06 ± 0.053 (treatment time: 3 days) and 1 ± 0.046 (treatment time: 6 days).
